According to publication PMC5462475, “A conformational switch high-throughput screening assay and allosteric inhibition of the flavivirus NS2B-NS3 protease” (PLoS Pathogens, 2017):

Molecular target: T1, DENV2 NS2B-NS3 protease complex (Dengue virus type 2, UniProt P14340)
T1 construct: pairs of primers of 1394F and 1440C for NS2B and 1476F and 1660C for NS3; made in house; host or cells: Escherichia coli Rosetta 2(DE3)
Format: biochemical

[1] = compound 3 μM, protease 150 nM, Abz substrate 25-400 μM

## O=C1C=CC(=NNc2ccc([N+](=O)[O-])cc2Cl)C=C1C(=O)Nc1cccc(Cl)c1 [NSC135618]
[1]
  effect on Km: did not change
  effect on Vmax: significantly reduced the Vmax value
From Vmax/Km, Lineweaver-Burk plot
  inhibition mechanism: non-competitive
